About 540 (0.36%) of roughly 150,000 compounds showed an effect of 50% or more. Some of the results follow.
System: Plasmodium falciparum
Assay: Primary screen in NF54 nanoGlo assay, in single point, at 2uM, 72h; a lower Z score goes with more inhibition
Type: functional, Erythrocyte
Details: timepoint 72 hour

Row | SMILES | % Inhibition | Z score
1 | Cc1nc(C)c(CN2CCC[C@H](c3cc(C(N)=O)[nH]n3)C2)s1 | -8% | 0.87
2 | COc1ccc([C@H]2[C@H](C(=O)NC3CCN(Cc4ccccc4)CC3)CCC(=O)N2C)cc1 | 35% | -3.97
3 | COc1cc(NC(=O)Cc2cscn2)c(C(=O)N2CCCCC2)cc1OC | -11% | 1.15
4 | COc1ccccc1CNC(=O)C1CC(=O)N(C)C1c1cccnc1 (stereo unspecified) | -1% | 0.1
5 | O=C(Nc1ccc(S(=O)(=O)N2CCc3ccccc32)cc1)N1CCCC1 | -9% | 1.1
6 | CS(=O)(=O)c1cc(NC(=O)c2ccccc2OCC2CC2)cc(C(=O)O)c1 | -14% | 1.41
7 | CN1C[C@@H](NC(=O)NCc2ccc(F)cc2)CC1=O | 8% | -1.1
8 | COc1ccccc1NS(=O)(=O)c1ccc(-c2nnc(C3CC3)o2)o1 | 2% | -0.27
9 | NC(=O)c1ccc(CN2C(=O)NC3(CCCC3)C2=O)cc1 | -14% | 2.07
10 | O=S(=O)(C1CCOCC1)N1CCN(Cc2ccccc2)C2(CCCCC2)C1 | -11% | 1.49
11 | COC[C@H](NC(=O)c1ccc2c(c1)OCCO2)C1CC1 | 10% | -0.98
12 | CN1CCN(C(=O)CC[C@H]2CCCN(Cc3sc4ccccc4c3Cl)C2)CC1 | -14% | 1.26
13 | Cc1cnn(C[C@H](C)NCc2cnc(N3CCOCC3)nc2)c1 | 6% | -0.92
14 | Cc1cn(CCn2cnc(-c3ccccc3)c2-c2ccc3ccccc3n2)nn1 | 4% | -0.51
15 | O=C1c2ccccc2C(=O)N1Cc1ncc2ccccn12 | 0% | 0.06
16 | CCC(=O)Nc1ccc(N(C)C)c(CN(C[C@H]2CCCO2)C(C)=O)c1 | 5% | -0.65
17 | C=CCNC(=O)c1cccc(CN2C(=O)C[C@@H](c3ccc(F)cc3)NC2=O)c1 | -7% | 0.82
18 | CC(C)n1cnnc1CN(C)C1CCN(Cc2ccco2)CC1 | 0% | -0.01
19 | C[C@@H](CNC(=O)c1ncccc1Br)Nc1ccccc1 | 6% | -0.85
20 | CN(Cc1cscn1)C(=O)c1nn(Cc2ccccc2)c2c1CN(C(=O)c1ccnn1C)CC2 | -9% | 1.18
21 | COc1ccc(NC(=O)c2ccc3cc[nH]c3c2)cn1 | 0% | 0.07
22 | CCC=C(C)C(=O)N[C@@H](C)c1cc(OC)ccc1OC | -7% | 1.09
23 | Cn1cc2c(n1)CCC[C@H]2C(=O)Nc1ccc(C(C)(C)C)cc1O | 4% | -0.49

From ChEMBL document CHEMBL4888484, “Replenishing the malaria drug discovery pipeline: Screening and hit evaluation of the MMV Hit Generation Library 1 (HGL1) against asexual blood stage Plasmodium falciparum ,using a nano luciferase reporter read-out” (2022)
